Measurements reported in PubChem BioAssay AID1745853 (National Center for Advancing Translational Sciences (NCATS), 2022).
This is one part of the list. Shown are side measurements of this screen, not its main read-out; they come without a call.

Columns and labels:
Assay in all cases: Primary Screen for Target Class Profiling of Small Molecule Inhibitors of Methyltransferases
[1] = molecular target: Glycine N-methyltransferase (Homo sapiens) (UniProt Q14749); details: purified enzyme, MTase-Glo SAH luminescence; measured here: GNMT inhibition; at 40 µM; stronger effect = lower value
Procedure, shortened: (§1)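 Each enzyme was reacted with SAM and its substrate, with compounds tested once at 40 uM; SAH formed was read by MTase-Glo luminescence.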

[2] = molecular target: Guanidinoacetate N-methyltransferase (Homo sapiens) (UniProt Q14353); details: purified enzyme, MTase-Glo SAH luminescence; measured here: GAMT inhibition; at 40 µM; stronger effect = lower value
Procedure, shortened: as §1

[3] = molecular target: Histamine N-methyltransferase (Homo sapiens) (UniProt P50135); details: purified enzyme, MTase-Glo SAH luminescence; measured here: HNMT inhibition; at 40 µM; stronger effect = lower value
Procedure, shortened: as §1

[4] = molecular target: Nicotinamide N-methyltransferase (Homo sapiens) (UniProt P40261); details: purified enzyme, MTase-Glo SAH luminescence; measured here: NNMT inhibition; at 40 µM; stronger effect = lower value
Procedure, shortened: as §1

[5] = molecular target: Phenylethanolamine N-methyltransferase (Homo sapiens) (UniProt P11086); details: purified enzyme, MTase-Glo SAH luminescence; measured here: PNMT inhibition; at 40 µM; stronger effect = lower value
Procedure, shortened: as §1
% is set by controls: 0 for no effect and ±100 for the full control effect.

Row | Compound | activity change, negative = inhibition [1] [%] | activity change, negative = inhibition [2] [%] | activity change, negative = inhibition [3] [%] | activity change, negative = inhibition [4] [%] | activity change, negative = inhibition [5] [%]
1 | COc1ccccc1CNC(=O)C1(C)Cn2nc(-c3ccccc3)cc2C(=O)N1c1cc(C)ccc1C (stereo not given) | 0.822 | 0 | 2.54 | 3.2 | 0.375
2 | CC(C)OCCCNC(=O)C1c2c(n(C)c3ccccc23)SCC(=O)N1Cc1ccco1 (stereo not given) | 9.33 | 0 | 1.46 | 4.41 | 4.87
3 | Cn1c(=O)c2ccc(C(=O)NC3CCCC3)cc2n2c(=O)n(CC(=O)NC3CCCCC3)nc12 | 1.58 | 0 | 1.08 | -0.863 | 3.38
4 | COc1cccc(N2C(=O)c3cc4occc4n3CC2(C)C(=O)NC2CCCC(C)C2C)c1 (stereo not given) | 2.46 | 0 | 5.07 | 7.96 | -0.285
5 | Cn1nccc1CN1CCCC2(COc3ccccc3C(=O)N2)C1 (stereo not given) | -8.77 | -0.327 | -1.9 | -9.14 | 7.15
6 | Cc1nsc(NC(=O)N2CCC(CO)CC2)n1 | -1.04 | -1 | -1.47 | -0.23 | -7.93
7 | Cc1ccc(CNC(=O)c2sc(=S)n3c2[nH]c(=O)c2cc4c(cc23)OCO4)cc1 | -4.31 | 3.46 | 5.13 | -11.3 | -3.47
8 | Cc1ccccc1N1CCN(C(=O)c2nnn3c2COC(c2ccc(Cl)cc2)C3)CC1 (stereo not given) | -1.62 | -1.83 | -3.04 | -6.54 | -0.938
9 | COc1ccccc1CNC(=O)C1(C)Cn2nc(-c3ccccc3)cc2C(=O)N1c1cccc(F)c1 (stereo not given) | 4.61 | 0 | 7.39 | 8.14 | -8.72
10 | Cn1ccnc1C(=O)C1CCCN(Cc2cc(=O)c3cccc(Cl)c3[nH]2)C1 (stereo not given) | -13.1 | -0.365 | -5.86 | -8.35 | 2.21
11 | CCCn1c(=O)c2cc(Cl)ccc2n2c(=O)n(CC(=O)Nc3cccc(F)c3)nc12 | -2.02 | 2.25 | 4.03 | -3.66 | -2.4
12 | CCCn1c(=O)c2ccc(C(=O)NC(C)CC)cc2n2c(=O)n(CC(=O)c3ccc(F)cc3F)nc12 (stereo not given) | 1.46 | 0.343 | 3.16 | -1.64 | 3
13 | CCc1cc2c(cc3n2CC(C)(C(=O)NC2CCCCCC2)N(CCCN2CCCCC2)C3=O)s1 (stereo not given) | -6.29 | 1.29 | -7.12 | -1.22 | -5.87
14 | O=C([C@@H]1COCC(=O)N1Cc1ccccc1)N1CCN(Cc2ccc3c(c2)OCO3)CC1 | -0.157 | 0.241 | 2.54 | -5.16 | 17.8
15 | Cc1ccc(Cn2c(=O)c3ccccc3n3c(CCC(=O)NCCCN4CCCC4=O)nnc23)cc1 | -1.18 | 0 | 3.29 | 3.8 | 1.82
16 | CC(C)OCCCNC(=O)C1c2c(n(C)c3ccccc23)SCC(=O)N1c1ccc(C(C)C)cc1 (stereo not given) | 0.195 | 0 | -2.45 | -1.59 | 2.26
17 | C/C=C/C=C/C(O)=C1\C(O)=C(C)C(=O)[C@@]2(C)OC(=O)[C@@](C)(NC(=O)/C=C/C(=O)O)[C@@H]12 | 0 | -4.32 | 8.71 | -16.7 | -8.9
18 | COc1ccc(-c2nc(-c3ccc(-c4cccc(Cl)c4)o3)[nH]c2-c2ccc(OC)cc2)cc1 | 2.05 | -19.2 | -1.46 | -47.7 | -18.7
19 | Cc1nnc(-c2ccc(-c3ccc(C(=O)Nc4ccc(O)c(N5CCN(C)CC5)c4)cc3)c(C)c2)o1 | -6.48 | 3.68 | -16.5 | -25.9 | 2.29

Row | Compound | activity change, negative = inhibition [1] [%] | activity change, negative = inhibition [2] [%] | activity change, negative = inhibition [3] [%] | activity change, negative = inhibition [4] [%] | activity change, negative = inhibition [5] [%]
20 | CCCn1c(=O)c2ccc(C(=O)NC(C)C)cc2n2c(=O)n(CC(=O)c3ccc(C)cc3C)nc12 | -0.201 | 3.51 | 6.27 | -3.78 | 0.737
21 | CCOc1ccccc1CNC(=O)c1cc2n(n1)CC(C)(C(=O)NCc1ccc(C)cc1)N(C)C2=O (stereo not given) | 2.67 | 0 | 1.39 | 5.03 | 0.487
22 | C=Cc1ccc(Cn2nc3n(CCC)c(=O)c4ccc(C(=O)NCC(C)C)cc4n3c2=O)cc1 | 5.11 | 0.478 | 9.76 | 1.29 | 5.87
23 | CC(C)CNC(=O)c1ccc2c(=O)n(C(C)C)c3nn(Cc4ccccc4Cl)c(=O)n3c2c1 | 2.87 | 0 | 6.36 | 4.9 | 4.88
24 | CCOC(=O)c1cc2n(n1)CC(C)(C(=O)NC1CCCCC1)N(c1ccc(OCC)cc1)C2=O (stereo not given) | 3.95 | 0 | -0.748 | 3.23 | 5.2
25 | CC1(C(=O)NC2CCCCCC2)Cn2c(ccc2-c2ccco2)C(=O)N1Cc1ccccc1Cl (stereo not given) | -9.29 | 3.05 | -1.94 | -20 | -4.13
26 | O=C(COc1ccc(F)cc1)N1CCCCC1c1nc(-c2cnccn2)n[nH]1 (stereo not given) | -2.38 | 4.51 | 2.97 | -4.49 | 8.54
27 | CN(C)CC1CCn2c(c(C3=C(c4cn(C)c5ccccc45)C(=O)NC3=O)c3ccccc32)C1 (stereo not given) | -10.3 | 2.83 | -43.1 | -51 | -6.31
28 | COc1cc(O[C@@H]2O[C@H](CO)[C@@H](O)[C@H](O)[C@H]2O)c(CCC(=O)OC[C@H]2O[C@@H](Oc3cc(OC)c(C4OC(=O)C(C)(O)C4O)cc3CCC(=O)O)[C@H](O)[C@@H](O)[C@@H]2O)cc1C1OC(=O)C(C)(O)C1O (stereo not given in full) | 0 | -8.08 | 0.117 | -18.7 | 0.829
29 | CC(NC(=O)CCc1nnc2n(Cc3ccc(Cl)cc3)c(=O)c3ccccc3n12)c1ccccc1 (stereo not given) | -3.5 | -4.98 | 3.12 | -9.2 | -5.5
30 | CCC(C)NC(=O)c1ccc2c(=O)n(C)c3nnc(SCC(=O)Nc4cc(C)cc(C)c4)n3c2c1 (stereo not given) | 1.51 | 0.24 | -3.27 | 0.372 | -1.35
31 | Cc1cc(C)cc(N2C(=O)c3cc(C(C)(C)C)nn3CC2(C)C(=O)NC2CCCCC2)c1 (stereo not given) | -6.49 | -2.06 | -3.78 | -6.07 | -2.64
32 | CCOC(=O)c1cc2n(n1)CC(C)(C(=O)NCCC(C)C)N(Cc1ccc(Cl)cc1)C2=O (stereo not given) | 0.756 | 5.21 | -0.146 | 1.96 | -2.64
33 | COCCCN1C(=O)c2cc3occc3n2CC1(C)C(=O)NC1CCCCC1C (stereo not given) | 4.27 | 2.19 | 6.48 | 4.76 | 1.33
34 | O=C(CCc1nnc2n(CCc3ccccc3)c(=O)c3ccccc3n12)NCCc1c[nH]c2ccccc12 | 3.34 | 3.78 | -5.11 | -2.18 | 0.603
35 | Cc1ccc(Cn2c(=O)c3ccc(C(=O)NCC(C)C)cc3n3c(=O)n(Cc4ccc(F)cc4)nc23)cc1 | 11.6 | 0.323 | 9.77 | 12.3 | 10.3
36 | Cc1ccccc1CN1C(=O)c2ccc(-c3ccco3)n2CC1(C)C(=O)NC1CCCCCCC1 (stereo not given) | -3.68 | 0 | 1.14 | -8.41 | -3.75
37 | COCc1cccc(-c2n[nH]c3c2CC(=O)N(c2ccccc2)C3)c1 | -6.6 | -4.93 | -4.72 | -7.47 | -7.77
38 | COc1ccc(NC(=O)N2CCn3cccc3C2Cc2ccccc2)c(OC)c1 (stereo not given) | 10.7 | 4.28 | -8.06 | 1.65 | -0.009

Row | Compound | activity change, negative = inhibition [1] [%] | activity change, negative = inhibition [2] [%] | activity change, negative = inhibition [3] [%] | activity change, negative = inhibition [4] [%] | activity change, negative = inhibition [5] [%]
39 | CC(C)Cn1c(=O)c2ccccc2n2c(CCC(=O)NC3CC3)nnc12 | -1.07 | 1.03 | 3.13 | 10 | -0.527
40 | COCCOc1ccc2c(n1)CCN(C(=O)c1ccc(OC)c(OC)c1)C2 | -3.78 | 0.267 | -0.82 | -0.368 | 2.29
41 | CC(C)OCCCN1C(=O)c2ccc(-c3ccco3)n2CC1(C)C(=O)NC1CCCC1 (stereo not given) | -2.63 | 1.65 | 5.31 | 2.79 | -0.727
42 | O=C(CCCc1nnc2n3nc(-c4ccccc4)nc3c3ccccc3n12)NC1CCCCC1 | -3.2 | 1.55 | 2.39 | 5.98 | -2.53
43 | CCc1cccc(-n2nnnc2N2CCN(C(=O)NC(C)c3ccccc3)CC2)c1 (stereo not given) | -3.02 | 0.13 | -1.96 | -15.4 | -3.76
44 | COc1cc(C)c(C(=O)OC2C(C)OC(OC3CCC(C)C4C3C=C(C)C3/C(C)=C\CC/C(C)=C/C5(C)C=C(C(=O)O)C(C)CC56OC(=O)/C(=C(\O)C34C)C6=O)C(O)C2O)c(OC)c1 (stereo not given) | 1.22 | 7.37 | 10.2 | -7.04 | -0.206
45 | CC(C)CCn1c(=O)c2ccc(C(=O)NC(C)C)cc2n2c(=O)n(CC(=O)c3cccc(Cl)c3)nc12 | -0.662 | 4.59 | -2.99 | -0.537 | 0.336
46 | CCN1c2cc(C(=O)N3CCN(c4cccc(C)c4)CC3)ccc2C(=O)N2CCCCC21 (stereo not given) | -14.4 | -6.42 | -9.1 | -25.1 | 4.28
47 | CC[C@H]1CN(S(C)(=O)=O)CC[C@H]1CC(=O)NCc1ccco1 | -2.06 | 0.975 | -0.591 | -0.511 | 0.706
48 | Cc1ccc(N2C(=O)N[C@@H]3CCN(S(=O)(=O)c4ccc(Cl)cc4)[C@@H]3C2=O)cc1 | -9.7 | -8.21 | -5.67 | -15.2 | -14.7
49 | COc1ccccc1CN1C(=O)c2cc(-c3ccco3)nn2CC1(C)C(=O)NC1CCCCCC1 (stereo not given) | -1.24 | 2.22 | 0.235 | -3.79 | -4.91
50 | Cc1ccc(C)c(N2CCN(S(=O)(=O)c3ccc4c(c3)n(C)c(=O)n4C)CC2)c1 | -4.73 | 0 | 5.31 | 2.82 | 0.132
51 | CCCSCCCN1C(=O)c2cc3sc(CC)cc3n2CC1(C)C(=O)NC1CCCCCC1 (stereo not given) | 1.02 | 5.46 | 1.53 | 5.02 | -4.85
52 | CCCn1c(=O)c2ccc(C(=O)NC3CCCCC3)cc2n2c(=O)n(CC(=O)Nc3ccc(C)cc3)nc12 | 9.78 | 1.75 | 15 | 10.8 | 10.7
53 | CCN(CC)CCCNC(=O)c1cc2n(n1)CC(C)(C(=O)NCc1ccccc1)N(C)C2=O (stereo not given) | 3.84 | 0 | 1.43 | 3.66 | 0.797
54 | CCC(C)NC(=O)c1ccc2c(=O)n(C)c3nn(CC(=O)N(C)c4ccc(F)cc4)c(=O)n3c2c1 (stereo not given) | 6.39 | 0.62 | 4.49 | 9.14 | 6.37
55 | O=C(c1ccc(Cl)nc1)N1CCC(C(=O)N2CCC(N3CCCC3=O)CC2)CC1 | -2.13 | -5.76 | -0.611 | -6.08 | -2.58
56 | CC1(O)CCCC2(C)C1CCC13CC(CO)C(CCC12)C3 (stereo not given) | -1.9 | -4.97 | 4.3 | -19.4 | -3.04
